The supplement of paper PMC8728848
Shown is part of a subset that was picked to be rich in the strongest signals.

Key:
Assay in all cases: glycan array binding signal (z-score within array); higher = stronger binding
Conditions in all cases: glycan notation: IUPAC condensed, linker removed
[1] = system: Gal(a1-3)Gal(b1-4)[Fuc(a1-3)]GlcNAc
In short: (§1)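 The Consortium for Functional Glycomics database supplied 3228 glycan arrays, of which those lacking an available protein sequence were dropped. The binding signal, a within-array Z-score, was averaged across arrays of the same protein sequence and across linkers. Negative scores can be read as non-binding.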

[2] = system: Gal(a1-4)Gal(b1-4)Glc
In short: as §1

[3] = system: Gal(b1-3)GlcNAc(a1-3)Gal(b1-4)GlcNAc
In short: as §1

[4] = system: Gal(a1-3)GalNAc
In short: as §1

[5] = system: Gal(b1-3)GlcNAc(b1-2)Man(a1-3)[GlcNAc(b1-4)][Gal(b1-3)GlcNAc(b1-2)Man(a1-6)]Man(b1-4)GlcNAc(b1-4)GlcNAc
In short: as §1

[6] = system: Gal(a1-3)GlcNAc
In short: as §1

[7] = system: Gal(b1-3)Gal
In short: as §1

[8] = system: Gal(a1-4)Gal(b1-3)GlcNAc(b1-2)Man(a1-3)[Gal(a1-4)Gal(b1-3)GlcNAc(b1-2)Man(a1-6)]Man(b1-4)GlcNAc(b1-4)GlcNAc
In short: as §1

[9] = system: Gal(a1-4)Gal(b1-4)GlcNAc(b1-2)Man(a1-3)[Gal(a1-4)Gal(b1-4)GlcNAc(b1-2)Man(a1-6)]Man(b1-4)GlcNAc(b1-4)GlcNAc
In short: as §1

[10] = system: Gal(a1-4)Gal(b1-4)Gal
In short: as §1

[11] = system: Gal(a1-4)Gal(b1-4)GlcNAc(b1-3)Gal(b1-4)Glc
In short: as §1

[12] = system: Gal(a1-4)Gal(b1-4)GlcNAc
In short: as §1

[13] = system: Gal(b1-3)Gal(b1-4)GlcNAc(b1-2)Man(a1-3)[Gal(b1-3)Gal(b1-4)GlcNAc(b1-2)Man(a1-6)]Man(b1-4)GlcNAc(b1-4)GlcNAc
In short: as §1

[14] = system: Gal(b1-3)GlcNAc(b1-2)Man(a1-3)[Gal(b1-3)GlcNAc(b1-2)Man(a1-6)]Man(b1-4)GlcNAc(b1-4)GlcNAc
In short: as §1

[15] = system: Gal(b1-2)Gal
In short: as §1

[16] = system: Gal(b1-3)Gal(b1-4)GlcNAc
In short: as §1

**Q.** What does the source list for “Gal 3 (Homo sapiens) (chain not printed)”?
**A.** glycan array binding signal (z-score) [1]: -0.321; glycan array binding signal (z-score) [2]: -0.195; glycan array binding signal (z-score) [3]: -0.27

**Q.** How did the “glycan array binding signal (z-score)” value [4] turn out when “Thrombomodulin Extracellular (Homo sapiens) (chain not printed)” was run?
**A.** The value was -0.999.

**Q.** MBP (Homo sapiens) (chain not printed) was tested. Which “glycan array binding signal (z-score)” value [4] did it give?
**A.** The value was -0.249.

**Q.** And the “glycan array binding signal (z-score)” value [5]?
**A.** Its value is -0.126.

**Q.** For “Galectin-8 C-terminal CRD (Homo sapiens) (chain not printed)”, which “glycan array binding signal (z-score)” value [6] is on record?
**A.** Its value is -0.339.

**Q.** With “STIM-3 (Mus musculus) (chain not printed)” as the substance, how does the “glycan array binding signal (z-score)” value [6] read?
**A.** The value was 0.928.

**Q.** What about the “glycan array binding signal (z-score)” value [7] of the same substance?
**A.** Its value is 1.82.

**Q.** Which “glycan array binding signal (z-score)” value [8] does the source give for “Meso764 (Homo sapiens) (chain not printed)” here?
**A.** The value was 0.309.

**Q.** And the “glycan array binding signal (z-score)” value [9]?
**A.** The value was 1.96.

**Q.** How did the “glycan array binding signal (z-score)” value [10] turn out when “L-Ficolin (Homo sapiens) (chain not printed)” was run?
**A.** Its value is -0.721.

**Q.** With “CLEC-2 (Homo sapiens) (chain not printed)” as the substance, how does the “glycan array binding signal (z-score)” value [9] read?
**A.** The value was 1.79.

**Q.** How did the “glycan array binding signal (z-score)” value [11] turn out when “NCAM1 (Homo sapiens) (chain not printed)” was run?
**A.** The value was -0.363.

**Q.** What about the “glycan array binding signal (z-score)” value [7] of the same substance?
**A.** The value was -0.163.

**Q.** Which results are given for “M-Ficolin G221F A256V (Homo sapiens) (chain not printed)”?
**A.** glycan array binding signal (z-score) [12]: -0.333; glycan array binding signal (z-score) [13]: -0.337; glycan array binding signal (z-score) [14]: -0.346

**Q.** With “M-Ficolin (Homo sapiens) (chain not printed)” as the substance, how does the “glycan array binding signal (z-score)” value [12] read?
**A.** The value was -0.055.

**Q.** How did the “glycan array binding signal (z-score)” value [2] turn out when “Siglec-2 (Homo sapiens) (chain not printed)” was run?
**A.** Its value is -0.234.

**Q.** For “Angiogenin (Homo sapiens) (chain not printed)”, which “glycan array binding signal (z-score)” value [15] is on record?
**A.** Its value is 0.722.

**Q.** For “Gal 8 long (Homo sapiens) (chain not printed)”, which “glycan array binding signal (z-score)” value [16] is on record?
**A.** The value was -0.161.

**Q.** “M-Ficolin A256V (Homo sapiens) (chain not printed)” was tested. Which “glycan array binding signal (z-score)” value [14] did it give?
**A.** Its value is -0.163.

**Q.** With FGF2 (chain not printed) as the substance, how does the “glycan array binding signal (z-score)” value [5] read?
**A.** Its value is 0.748.
